# Results taken from the supplement of paper PMC8728848.
# The list shows a part of the results.
# B1: CwpV (Clostridium difficile), B6EFG6 (protein)
# chain: MKIPKKIAAMLTVTMIAGSSTAGIASAQTVATNLTGQERYETAVKISQDGWKNADEVVIVNDSSIADALSATPFAKAKNAPILLTSKDKLNDKTKAEIQRLKAKKVYLIGGTSVLSTNIEKEIKDLKISFERISGAERYQTSLELAKKLDAISDVKKIAVVNGEKGLADAVSVGAPAAQNNMPVILADSKNGTAVADKFIKDAGITQSYVVGGESSISEAVKNKLPNSTRLGGTDRNDTNAKVIKEFYKKTDLKNAYVTKDGMNKQDQLIDALAVGVLGAKNQSPVVLVGKNLSASQKSLVNSKSFDKITKVGGNGNETAFNEMKSLQEVKTVEAKTISELKSAIDKATANDVINFKPTSEVKEAFTIQTDKAVTVNLNGTYTKTVTINMPNGDVNNYAKVDDVVIDDVKDGTFVNYGKITNLKVNDKNGAKIENNSKGEIGSLTVASGASQVKVTNGGKITTVTNNSKGTTIDNKGTISSVKGDNSPTISGNSPSSNSSGGSSSSGGSSGGSSGGSSSSKVGQIKFSATDKQIKMASGDKTVDPSDNTYILKLTNGTVKDGDVKANVKVAGLPSGLDYTAVGNRSANTITITVSGTTSQSIQNDLNNVSVLVKAGAVSGTGATDSIANTTFEIKKYVAAPAVGQLTFDATDKQIKMASGDKTVDPSDDTYVLTLTKGTAKDGDIKANVEVTGLPSGLDYTAEGDSSANTITIPVSGTASPAVQTDLDNVSVLVKAGAVSETTATDSAANATFEVKKYVAPAVGQLTFDATDKQIKMASGDKTVDPSDDTYVLTLTKGTAKDGDIKANVEVTGLPSGLDYTAEGDSSANTITITVSGTASQAVQTDLDNVSVLVKAGAVSETTATDSAANATFEVKKYVAPAIGQLTFDATDKQIKMASGDKTVDPSDDTYVLTLTKGTAKDGDIKANVEVTGLPSGLDYTAEGDSSANTITITVSGTASQAVQTDLDNVSVLVKAGAVSETTATDSAANATFEVKKHASDPISTIGKISSGLSSLFNILK
# Tests used:
# Assay in all cases: glycan array binding signal (z-score within array); higher = stronger binding
# Conditions in all cases: glycan notation: IUPAC condensed, linker removed
# [1] = molecular target: GlcNAc(b1-6)Gal(b1-4)GlcNAc
# Procedure, shortened: (§1)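 From the Consortium for Functional Glycomics database, 3228 arrays were curated, keeping only those whose protein sequence was available. Binding is given as a within-array Z-score averaged across arrays sharing a protein sequence and across linkers. Negative Z-scores can be read as non-binding.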
# GlcNAc(b1-6)GalNAc = molecular target: GlcNAc(b1-6)GalNAc
# Procedure, shortened: as §1
# GlcNAc3Prop(b1-4)GlcNAc = molecular target: GlcNAc3Prop(b1-4)GlcNAc
# Procedure, shortened: as §1
# [2] = molecular target: GlcNAc6S(b1-3)Gal(b1-4)GlcNAc
# Procedure, shortened: as §1
# Kdn(a2-3)Gal(b1-3)GalNAc = molecular target: Kdn(a2-3)Gal(b1-3)GalNAc
# Procedure, shortened: as §1
# Kdn(a2-3)Gal(b1-3)GlcNAc = molecular target: Kdn(a2-3)Gal(b1-3)GlcNAc
# Procedure, shortened: as §1
# Kdn(a2-3)Gal(b1-4)Glc = molecular target: Kdn(a2-3)Gal(b1-4)Glc
# Procedure, shortened: as §1
# Kdn(a2-3)Gal(b1-4)GlcNAc = molecular target: Kdn(a2-3)Gal(b1-4)GlcNAc
# Procedure, shortened: as §1
# [3] = molecular target: Kdn(a2-3)Gal(b1-4)[Fuc(a1-3)]GlcNAc
# Procedure, shortened: as §1
# Kdn(a2-6)Gal(b1-4)GlcNAc = molecular target: Kdn(a2-6)Gal(b1-4)GlcNAc
# Procedure, shortened: as §1
# [4] = molecular target: Man(a1-2)Man(a1-2)Man(a1-3)Man
# Procedure, shortened: as §1
# [5] = molecular target: Man(a1-2)Man(a1-2)Man(a1-6)[Man(a1-3)]Man
# Procedure, shortened: as §1
# Man(a1-2)Man(a1-3)Man = molecular target: Man(a1-2)Man(a1-3)Man
# Procedure, shortened: as §1
# [6] = molecular target: Man(a1-2)Man(a1-3)[Man(a1-2)Man(a1-6)]Man
# Procedure, shortened: as §1
# [7] = molecular target: Man(a1-2)Man(a1-3)[Man(a1-2)Man(a1-6)]Man(a1-6)[Man(a1-2)Man(a1-2)Man(a1-3)]Man
# Procedure, shortened: as §1
# [8] = molecular target: Man(a1-2)Man(a1-3)[Man(a1-2)Man(a1-6)]Man(a1-6)[Man(a1-2)Man(a1-2)Man(a1-3)]Man(b1-4)GlcNAc(b1-4)GlcNAc
# Procedure, shortened: as §1
# [9] = molecular target: Man(a1-2)Man(a1-3)[Man(a1-6)]Man(a1-6)[Man(a1-2)Man(a1-3)]Man(b1-4)GlcNAc(b1-4)GlcNAc
# Procedure, shortened: as §1
# [10] = molecular target: Man(a1-2)Man(a1-6)[Man(a1-3)]Man(a1-6)[Man(a1-2)Man(a1-2)Man(a1-3)]Man
# Procedure, shortened: as §1
# [11] = molecular target: Man(a1-2)Man(a1-6)[Man(a1-3)]Man(a1-6)[Man(a1-2)Man(a1-2)Man(a1-3)]Man(b1-4)GlcNAc(b1-4)GlcNAc
# Procedure, shortened: as §1
# Man(a1-3)[Man(a1-6)]Man = molecular target: Man(a1-3)[Man(a1-6)]Man
# Procedure, shortened: as §1
# [12] = molecular target: Man(a1-3)[Man(a1-6)]Man(a1-6)[Man(a1-2)Man(a1-3)]Man(b1-4)GlcNAc(b1-4)GlcNAc
# Procedure, shortened: as §1
# [13] = molecular target: Man(a1-3)[Man(a1-6)]Man(a1-6)[Man(a1-3)]Man
# Procedure, shortened: as §1
# [14] = molecular target: Man(a1-3)[Man(a1-6)]Man(a1-6)[Man(a1-3)]Man(b1-4)GlcNAc(b1-4)GlcNAc
# Procedure, shortened: as §1
# [15] = molecular target: Man(a1-3)[Man(a1-6)]Man(b1-4)GlcNAc(b1-4)GlcNAc
# Procedure, shortened: as §1
# Man(a1-6)Man = molecular target: Man(a1-6)Man
# Procedure, shortened: as §1
# Man(b1-4)GlcNAc = molecular target: Man(b1-4)GlcNAc
# Procedure, shortened: as §1
# Neu5Ac(a2-3)Gal = molecular target: Neu5Ac(a2-3)Gal
# Procedure, shortened: as §1
# [16] = molecular target: Neu5Ac(a2-3)Gal(b1-3)GalNAc
# Procedure, shortened: as §1
# [17] = molecular target: Neu5Ac(a2-3)Gal(b1-3)GalNAc(b1-3)Gal(a1-4)Gal(b1-4)Glc
# Procedure, shortened: as §1
# [18] = molecular target: Neu5Ac(a2-3)Gal(b1-3)GalNAc(b1-4)[Neu5Ac(a2-3)]Gal(b1-4)Glc
# Procedure, shortened: as §1
binder,measurement,setting,value
B1,glycan array binding signal (z-score),[1],-0.281
same,glycan array binding signal (z-score),GlcNAc(b1-6)GalNAc,-0.262
same,glycan array binding signal (z-score),GlcNAc3Prop(b1-4)GlcNAc,-0.262
same,glycan array binding signal (z-score),[2],0.75
same,glycan array binding signal (z-score),Kdn(a2-3)Gal(b1-3)GalNAc,0.224
same,glycan array binding signal (z-score),Kdn(a2-3)Gal(b1-3)GlcNAc,-0.065
same,glycan array binding signal (z-score),Kdn(a2-3)Gal(b1-4)Glc,-0.262
same,glycan array binding signal (z-score),Kdn(a2-3)Gal(b1-4)GlcNAc,-0.23
same,glycan array binding signal (z-score),[3],0.153
same,glycan array binding signal (z-score),Kdn(a2-6)Gal(b1-4)GlcNAc,-0.162
same,glycan array binding signal (z-score),[4],0.915
same,glycan array binding signal (z-score),[5],-0.062
same,glycan array binding signal (z-score),Man(a1-2)Man(a1-3)Man,-0.105
same,glycan array binding signal (z-score),[6],-0.273
same,glycan array binding signal (z-score),[7],-0.28
same,glycan array binding signal (z-score),[8],-0.294
same,glycan array binding signal (z-score),[9],0.121
same,glycan array binding signal (z-score),[10],-0.258
same,glycan array binding signal (z-score),[11],-0.037
same,glycan array binding signal (z-score),Man(a1-3)[Man(a1-6)]Man,-0.329
same,glycan array binding signal (z-score),[12],-0.301
same,glycan array binding signal (z-score),[13],-0.348
same,glycan array binding signal (z-score),[14],-0.272
same,glycan array binding signal (z-score),[15],-0.29
same,glycan array binding signal (z-score),Man(a1-6)Man,-0.302
same,glycan array binding signal (z-score),Man(b1-4)GlcNAc,-0.211
same,glycan array binding signal (z-score),Neu5Ac(a2-3)Gal,-0.26
same,glycan array binding signal (z-score),[16],-0.083
same,glycan array binding signal (z-score),[17],11.2
same,glycan array binding signal (z-score),[18],-0.101
